Source: PubChem BioAssay AID588855 (National Center for Advancing Translational Sciences (NCATS), 2011)
About 5,000 (1.2%) of roughly 410,000 compounds were called active. The shares of active, inactive and inconclusive entries below differ from those in the screen. Calls come from the whole dose curve; as a rule, active = well fitted inhibition curve with a large enough effect; inconclusive = small, poorly fitted or top-dose-only effect; inactive = no such curve, though single readings can be large or run the other way. Potencies of inconclusive entries are doubtful fits and often do not repeat.
Potency is the fitted concentration of half-maximal effect; tags give direction and shape of the fitted curve.

Assay: qHTS for Inhibitors of TGF-b; note: nearly all actives have a fitted effect of over 65% in size
Conditions: HepG2 CAGA-GFP TGF-b/SMAD3 reporter, GFP fluorescence, 18 h, TGF-beta stimulated, 500 pg/mL final; series mostly up to 46.1 µM
Method in brief: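 First, reporter cells (HEPG2 CAGA-GFP) rested 2 h at 37 degrees C. Next, compounds were pinned in and TGF-beta added to 500 pg/mL final. After 18 h, GFP was imaged per cell and summed per well.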
In the case of `Nc1[nH]nc2ncc3cc4ccccc4nc3c12`, the Potency is reported as inconclusive: 12.6 µM [inhibitor, partial curve].
With `C/C(N)=C(/C#N)C(=O)COC(=O)c1cc(-c2cccc3ccccc23)nc2ccccc12` the Potency was inconclusive: 35.5 µM [inhibitor, single point].
For `N#CC1=C2N=C(N)c3ccccc3N2C2=C(C(=O)CCC2)C1c1cccc(Cl)c1` (stereo not given), the Potency was inconclusive: 35.5 µM [inhibitor, single point].
For `Cc1ccc(NC(=O)N2CC3CCCN3c3ccccc32)c(C)c1` (stereo not given), the Potency was inconclusive: 11.2 µM [inhibitor, single point].
In the case of `CCCCNc1nc(=S)n(-c2ccccc2)c(C)c1C(C)=O`, the Potency is reported as inconclusive: 35.5 µM [inhibitor, single point].
With `O=C(NC1CCCc2c1cnn2-c1ccc(F)cc1F)c1ccccc1N1CCOCC1` (stereo not given) the Potency was inconclusive: 35.5 µM [inhibitor, single point].
For `CCN(CC)S(=O)(=O)c1ccc2c(c1)N(CC(=O)N1CCN(c3cccc(OC)c3)CC1)C(=O)CO2`, the Potency was inconclusive: 15.8 µM [inhibitor, single point].
For `Cc1ccc(Cl)cc1-n1ncc2c(NCCCc3ccccc3)ncnc21`, the Potency was inconclusive: 31.6 µM [inhibitor, single point].
For `CCc1ccc(NC(=O)c2ccc(F)c(S(=O)(=O)NCc3ccc(Cl)c(Cl)c3)c2)cc1`, the Potency was inconclusive: 14.1 µM [inhibitor, partial curve, poor fit].
In the case of `CCOc1ccc(NC(=O)CCC(=O)O)cc1`, the Potency is reported as inconclusive: 5.62 µM [inhibitor, single point].
For `O=C(C[n+]1ccncc1)c1ccc2c(c1)CCCC2`, the Potency was inconclusive: 35.5 µM [inhibitor, partial curve, poor fit].
For `Cc1ccc(/C(=N/Nc2ncnc3ccccc23)C(=O)O)cc1`, the Potency was inconclusive: 3.16 µM [inhibitor, full curve, poor fit].
In the case of `Brc1ccccc1/C=N/Nc1ccc2ccccc2n1`, the Potency is reported as “inactive”.
With `C[C@@H](C[C@@H](O)[C@H](O)C(C)(C)O)[C@@H]1CC[C@]2(C)C3=CC[C@H]4C(C)(C)C(=O)CC[C@]4(C)[C@H]3CC[C@@]12C` the Potency was active: 11.2 µM.
For `Cc1ccc(C2(c3ccc(C)cc3)CC2C(=O)Nc2ccc([N+](=O)[O-])cc2O)cc1` (stereo not given), the Potency was active: 3.98 µM.
For `O=C(C1CCN(S(=O)(=O)N2CCC3(CC2)OCCO3)CC1)N1CCN(Cc2ccccc2)CC1`, the Potency was “inactive”.
For `COc1cccc(NC(=O)n2nc(N)cc2-c2ccc(Cl)cc2)c1`, the Potency was inconclusive: 35.5 µM [inhibitor, single point].
With `OCC(CBr)(CBr)CBr` the Potency was “inactive”.
With `Cc1[nH]c2ccccc2c1C(=O)CN1C(=O)C(=O)N(CCC2=CCCCC2)C1=O` the Potency was inconclusive: 20 µM [inhibitor, single point].
In the case of `Cc1cc(C)c(S(=O)(=O)c2ccccc2C)c(Oc2ccccc2)n1`, the Potency is reported as inconclusive: 35.5 µM [inhibitor, single point].
For `CC(C)c1ccc(NC(=O)C(c2ccccc2)N(C)C(=O)CCc2c[nH]c3ccccc23)cc1` (stereo not given), the Potency was inconclusive: 25.1 µM [inhibitor, single point].
With `CCN(C(=O)CSc1nnnn1-c1ccccc1)c1c(N)n(Cc2ccccc2)c(=O)[nH]c1=O` the Potency was inconclusive: 6.31 µM [inhibitor, single point].
In the case of `O=C(CSc1nnc(NC(=O)C2CC2)s1)NCc1ccc(F)cc1`, the Potency is reported as inconclusive: 0.708 µM [inhibitor, full curve, poor fit].
For `CCOc1ccc(N2C(=O)c3n[nH]c(-c4cccs4)c3C2c2cccc(F)c2)cc1` (stereo not given), the Potency was inconclusive: 4.47 µM [inhibitor, partial curve, poor fit].
For `Cc1ccc(CC2(C)C(=O)Nc3ccc(OC(F)(F)F)cc32)cc1` (stereo not given), the Potency was active: 15.8 µM.
In the case of `COc1ccc(C(N)c2csc(Nc3ccc(C(F)(F)F)cn3)n2)cc1` (stereo not given), the Potency is reported as inconclusive: 22.4 µM [inhibitor, single point].
In the case of `O=C(NCCN1CCOCC1)c1ccc(=O)n(Cc2ccc(Cl)cc2)c1`, the Potency is reported as “inactive”.
In the case of `CCOC(=O)N1CCN(C(=O)CSc2nc3c([nH]c4ccccc43)c(=O)n2CCOC)CC1`, the Potency is reported as “inactive”.
In the case of `COc1ccc(OC)c(/C=C2\Cc3ccccc3C2=O)c1`, the Potency is reported as “inactive”.
With `Cc1ccc(NC(=O)c2c(C)nn(-c3ccccc3)c2Cl)c(C)c1` the Potency was inconclusive: 35.5 µM [inhibitor, single point].
For `CCN(CC)c1ccc2c(c1)oc(=O)c1c(Cl)cc(=O)oc12`, the Potency was inconclusive: 7.94 µM [inhibitor, partial curve, poor fit].
With `CSc1nc(Sc2ccc(Cl)cc2)c2ccccc2n1` the Potency was “inactive”.
In the case of `COc1ccc(S(=O)(=O)NCCS(=O)(=O)N2CCN(c3ccccc3)CC2)cc1C`, the Potency is reported as inconclusive: 11.2 µM [inhibitor, partial curve, poor fit].
In the case of `C=CCN(C/C(=N\O)c1sc(C(=O)OCC)nc1C)c1cccc(Br)c1`, the Potency is reported as inconclusive: 35.5 µM [inhibitor, single point].
With `CN1C(=O)C(C)(C)c2cc(S(=O)(=O)N3CCCC(C(=O)NCc4ccccc4Cl)C3)ccc21` (stereo not given) the Potency was “inactive”.
In the case of `CC(C)(C)c1nc(SCC(=O)NC2CCCC2)c2ccccc2n1`, the Potency is reported as inconclusive: 25.1 µM [inhibitor, single point].
With `COC(=O)c1ccccc1NC(=O)C1=C(C)C(=O)OC12CCCCCC2` the Potency was inconclusive: 12.6 µM [inhibitor, partial curve].
With `COc1ccc(C(=O)Nc2ccccc2SCc2cc(=O)c3cccc(C)c3[nH]2)cc1` the Potency was “inactive”.
For `COC(=O)c1[nH]c2ccc(Br)cc2c1NC(=O)CN1CCN(C2CCCCC2)CC1`, the Potency was inconclusive: 25.1 µM [inhibitor, single point].
In the case of `CCOC(=O)CSc1nc2ccccc2c(=O)n1-c1cccc(C)c1`, the Potency is reported as inconclusive: 35.5 µM [inhibitor, single point].
With `COc1ccc(Br)cc1CNC(=O)CCSCc1ccc(C)cc1` the Potency was inconclusive: 8.91 µM [inhibitor, partial curve, poor fit].
In the case of `NC(=O)N/N=C/c1ccc(-c2cccc(C(F)(F)F)c2)o1`, the Potency is reported as “inactive”.
In the case of `Cc1ccc(S(=O)(=O)N2CCN(Cc3nc4ccc(C)cc4o3)CC2)cc1`, the Potency is reported as inconclusive: 7.08 µM [inhibitor, partial curve].
In the case of `O=C(CS(=O)(=O)c1cccc2nsnc12)N1CCN(c2cccc(C(F)(F)F)c2)CC1`, the Potency is reported as “inactive”.
With `CC1(C(=O)NCc2ccc(C(F)(F)F)cc2)CCN1Cc1c(F)cccc1F` (stereo not given) the Potency was inconclusive: 35.5 µM [inhibitor, single point].
In the case of `Cc1cc(NC(=S)Nc2ccc(C)c(Cl)c2)n[nH]1`, the Potency is reported as inconclusive: 12.6 µM [inhibitor, single point].
In the case of `CCC(C)c1ccc(NC(=S)NCc2ccccc2OC)cc1` (stereo not given), the Potency is reported as inconclusive: 35.5 µM [inhibitor, single point].
In the case of `O=C(CSc1nnc(-c2c[nH]c3ccccc23)o1)N1c2ccccc2CCc2ccccc21`, the Potency is reported as inconclusive: 3.98 µM [inhibitor, partial curve].
In the case of `CNC(=S)NNC(=O)Cn1ccc(C)n1`, the Potency is reported as inconclusive: 0.562 µM [inhibitor, full curve, poor fit].
In the case of `Cc1ccc(S(=O)(=O)CCSC(=N)N)cc1`, the Potency is reported as inconclusive: 15.8 µM [inhibitor, single point].
With `CCOc1ccccc1CNC(=O)Cn1cc2c(n1)-c1c(oc(C(=O)N3CCCC3)c1C)CC2` the Potency was inconclusive: 35.5 µM [inhibitor, single point].
With `CC(=O)c1ccc(N(C(=O)CNC(=O)c2ccco2)C(C(=O)NC2CCCC2)c2ccncc2)cc1` (stereo not given) the Potency was inconclusive: 1.12 µM [inhibitor, single point].
With `O=C(c1ccc(OC2CCN(C(=O)C3CC3)CC2)cc1)N(CCO)Cc1ccccc1` the Potency was “inactive”.
With `CC1CCN(c2cc(N3CCN(C(=O)c4ccc(F)c(F)c4)CC3)c([N+](=O)[O-])cc2F)CC1` the Potency was inconclusive: 12.6 µM [inhibitor, partial curve, poor fit].
In the case of `FC(F)(F)c1nnc2ccc(N3CCCCCC3)nn12`, the Potency is reported as inconclusive: 35.5 µM [inhibitor, single point].
In the case of `COc1cccc(-c2nc(N3CCCCC3C)c3ccccc3n2)c1O` (stereo not given), the Potency is reported as inconclusive: 11.2 µM [inhibitor, partial curve].
For `COc1ccc(N2CCN(Cc3cccn3-c3nnc(N4CCN(C5CCCCC5)CC4)s3)CC2)cc1`, the Potency was “inactive”.
For `NC(=O)NCc1ccc(C(=O)OCc2ccncc2)cc1`, the Potency was inconclusive: 3.55 µM [inhibitor, single point].
With `CCOC(=O)c1cc2c(c(-c3cccc(C#Cc4ccc(OC)c(OC)c4)c3)n1)[C@@H](CCO)N(S(=O)C(C)(C)C)C2` (stereo not given in full) the Potency was inconclusive: 35.5 µM [inhibitor, single point].
In the case of `Cc1cccc(N(Cc2ccccc2)C(=O)CCl)c1`, the Potency is reported as inconclusive: 35.5 µM [inhibitor, single point].
For `COc1ccc(Br)cc1/C=N/NS(=O)(=O)c1ccccc1`, the Potency was inconclusive: 35.5 µM [inhibitor, partial curve, poor fit].
With `O=C(C1COc2ccccc2O1)N1CCn2c(nc3ccccc32)C1` (stereo not given) the Potency was inconclusive: 3.55 µM [inhibitor, single point].
For `CCCC1(c2ccccc2)NC(=O)N(CC(=O)Nc2cc(S(=O)(=O)N3CCOCC3)ccc2Cl)C1=O` (stereo not given), the Potency was inconclusive: 35.5 µM [inhibitor, single point].
With `O=C(CN1CCN(C(c2ccccc2)c2ccccc2)CC1)NCc1ccccc1` the Potency was “inactive”.
In the case of `COc1ccccc1N1CCN(C(=O)c2ccoc2C)CC1`, the Potency is reported as inconclusive: 5.62 µM [inhibitor, single point].
